Over roughly 33,000 sequences, “E-score (-0.5 to 0.5)” has its median near -0.041; the highest 2% begin near 0.37. This is one part of the list.

The assay concerns the target T1, Ecm22 (UniProt Q05958).
T1 sequence: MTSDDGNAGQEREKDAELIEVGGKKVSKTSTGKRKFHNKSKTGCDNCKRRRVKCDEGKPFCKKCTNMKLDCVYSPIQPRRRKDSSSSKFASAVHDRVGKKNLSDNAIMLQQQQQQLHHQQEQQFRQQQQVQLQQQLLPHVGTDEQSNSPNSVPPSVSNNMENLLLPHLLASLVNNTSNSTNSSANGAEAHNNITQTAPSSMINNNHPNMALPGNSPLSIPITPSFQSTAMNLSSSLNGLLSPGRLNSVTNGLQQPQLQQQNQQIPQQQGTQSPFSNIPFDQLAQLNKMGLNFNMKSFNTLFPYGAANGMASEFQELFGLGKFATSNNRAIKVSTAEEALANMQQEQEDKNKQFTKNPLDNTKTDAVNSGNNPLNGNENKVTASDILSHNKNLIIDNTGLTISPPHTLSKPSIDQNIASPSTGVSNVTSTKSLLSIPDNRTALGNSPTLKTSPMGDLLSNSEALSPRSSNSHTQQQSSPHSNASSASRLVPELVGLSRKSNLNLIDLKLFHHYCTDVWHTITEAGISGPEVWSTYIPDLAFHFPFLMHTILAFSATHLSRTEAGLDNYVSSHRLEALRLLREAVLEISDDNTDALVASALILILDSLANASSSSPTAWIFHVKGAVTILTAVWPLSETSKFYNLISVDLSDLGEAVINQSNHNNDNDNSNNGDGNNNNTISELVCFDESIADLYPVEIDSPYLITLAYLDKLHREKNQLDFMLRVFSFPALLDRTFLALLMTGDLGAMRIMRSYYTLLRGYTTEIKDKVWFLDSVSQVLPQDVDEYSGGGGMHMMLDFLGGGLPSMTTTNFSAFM
As to the kind of experiment: PBM E-score (8-mer binding enrichment) (E-score (-0.5 to 0.5)); higher = stronger / more preferred TF binding; most listed sequences are background and not binding sites. The following applies: protein concentration: 200 nM; construct: GST-full length. How it is done: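 Universal 'all 10-mer' protein binding microarrays (Agilent AMADID 015681) probed with GST-tagged S. cerevisiae TFs (full-length or DBD) made by in vitro transcription/translation (PURExpress), about 100-200 nM. Bound TF was detected with fluorescent anti-GST. Each ungapped 8-mer (which stands for itself and its reverse complement) is scored by the PBM enrichment score (E-score), a modified Wilcoxon-Mann-Whitney statistic from -0.5 to +0.5, computed with the Universal PBM Analysis Suite. Scale: above 0.35 generally sequence-specific binding.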
As to ACGGTTGA, the “PBM E-score” value is 0.0702.

As for AGTACCCG, the “PBM E-score” value turned out to be 0.182.

Take CAAAGGTC: the “PBM E-score” value is -0.263.

With AAAATTCA, the “PBM E-score” value came out at 0.0927.

CCAGTCGA: the “PBM E-score” value amounted to 0.118.

On to AATCGGAT, for which the “PBM E-score” value stood at 0.255.

For GGGAACGA, the “PBM E-score” value stood at 0.492.

AGTCTTCG: the “PBM E-score” value stood at 0.0716.

Regarding CCCTGTCA, the “PBM E-score” value was -0.00188.

For CGAACCAG, the “PBM E-score” value stood at 0.133.

For GGTTGTTA, the “PBM E-score” value was found to be 0.095.

Consider AATGCAAT, for which the “PBM E-score” value is -0.149.

In the case of AGGGCAGA, the “PBM E-score” value is -0.313.

With ACCCTGGA, the “PBM E-score” value is -0.0612.

With TCTACCAA, the “PBM E-score” value was -0.143.

Regarding ATCGAGCG, the “PBM E-score” value came out at 0.16.

For the sequence CGCCTTTA, the “PBM E-score” value was -0.0311.

As for CAATTATA, the “PBM E-score” value is -0.00144.

Take GCTTGTGA: the “PBM E-score” value was -0.29.

Take CCAGTCTA: the “PBM E-score” value was -0.106.

CGGTAGTA: the “PBM E-score” value was 0.0518.

GCTGCCTA: the “PBM E-score” value was -0.101.

With ACGGGTGC, the “PBM E-score” value was 0.177.

For the sequence AAATCTAC, the “PBM E-score” value was found to be 0.0781.

Turning to ACCTGTCA, the “PBM E-score” value is -0.14.

Take CACCTATG: the “PBM E-score” value is -0.00606.

CTGCTCTA: the “PBM E-score” value stood at 0.0645.

Regarding ATAGATGG, the “PBM E-score” value is -0.18.

On to GCGTGCTA, for which the “PBM E-score” value is -0.195.

As to CATGTTCC, the “PBM E-score” value is -0.25.

In the case of ACACCTAG, the “PBM E-score” value is -0.0969.

Consider CGGCACGA, for which the “PBM E-score” value was found to be 0.176.

As to ACTTAACG, the “PBM E-score” value amounted to 0.249.

Consider CACGCTGC, for which the “PBM E-score” value was -0.0694.

As for CCTTCGAC, the “PBM E-score” value was -0.239.

As for GATCTCTA, the “PBM E-score” value is -0.13.

For the sequence CAAGAGGC, the “PBM E-score” value was -0.309.

AGGTCCAC: the “PBM E-score” value was -0.158.

As for AAAGCGGT, the “PBM E-score” value was -0.0099.

Regarding ATGTTCGC, the “PBM E-score” value came out at 0.219.

Consider CAGTGTTC, for which the “PBM E-score” value is -0.0918.

For the sequence AAATCTGT, the “PBM E-score” value was -0.0108.

AAAATAGT: the “PBM E-score” value is -0.134.

On to AGCCCAAG, for which the “PBM E-score” value is -0.249.

As for CCACTGCG, the “PBM E-score” value is -0.19.

As for ATCTCGTC, the “PBM E-score” value came to 0.158.

As to GAGCGGCC, the “PBM E-score” value is -0.145.

As to ACAAGCGA, the “PBM E-score” value turned out to be 0.265.

Consider CCTGATAC, for which the “PBM E-score” value stood at 0.124.

With CCCCTCCG, the “PBM E-score” value was 0.0369.

With AAGTGTTG, the “PBM E-score” value came out at 0.0811.

As to AACCAATA, the “PBM E-score” value is -0.0892.

As for TACAGTCA, the “PBM E-score” value amounted to 0.101.

Turning to AACGAACC, the “PBM E-score” value is 0.408.

Consider TGCCCCCA, for which the “PBM E-score” value is -0.258.

With CCAGTTGC, the “PBM E-score” value is -0.196.

Regarding ATCATTAA, the “PBM E-score” value was found to be 0.118.

Take ACAGCGAA: the “PBM E-score” value came to 0.105.

Take TGAGAGCA: the “PBM E-score” value is -0.102.

For ACCGTTCG, the “PBM E-score” value was 0.229.

In the case of CGTGGCTA, the “PBM E-score” value is -0.202.

In the case of CATCAGCA, the “PBM E-score” value is -0.15.

GATCCATC: the “PBM E-score” value is 0.118.

Consider CATTGGGA, for which the “PBM E-score” value was -0.132.

For the sequence AATCAATA, the “PBM E-score” value was found to be 0.0985.

As for CGCTCTGA, the “PBM E-score” value is -0.116.

As to ACGAAGAC, the “PBM E-score” value was found to be 0.302.

As to CCCCGGTC, the “PBM E-score” value is -0.171.

As for AACAAAGT, the “PBM E-score” value was determined as 0.089.

As to CCCGATTC, the “PBM E-score” value is -0.00573.

In the case of ATAAATCC, the “PBM E-score” value came out at 0.0568.

In the case of ATTTGAAC, the “PBM E-score” value was determined as 0.0528.

As for ACACTGAC, the “PBM E-score” value turned out to be 0.0202.

As for TACGCCAA, the “PBM E-score” value amounted to 0.109.

Turning to AAAGGGCG, the “PBM E-score” value is -0.0368.

As for CCCGCCAC, the “PBM E-score” value was -0.0935.

Regarding CTTCGTCA, the “PBM E-score” value was determined as 0.117.

Regarding CGATACAC, the “PBM E-score” value was found to be 0.141.

Consider CGCCGAGA, for which the “PBM E-score” value was -0.0335.

Consider AATATATG, for which the “PBM E-score” value is 0.151.

For the sequence CGTCAGCA, the “PBM E-score” value was -0.0581.

Consider AGTACTCC, for which the “PBM E-score” value was -0.0363.

For the sequence ACACGGGC, the “PBM E-score” value is -0.0743.

Consider AACAGTCT, for which the “PBM E-score” value was -0.144.

As to AATTTTCT, the “PBM E-score” value was -0.0351.

GATCTAAC: the “PBM E-score” value turned out to be 0.0696.

The record behind these values is the supplement of paper PMC3334620.
